Data reported in the supplement of paper PMC6135742.
Counter-ions that a name gives are not always drawn. ± gives the standard deviation of the averaged measurements. Over roughly 2,600 compounds, “MBP+ mature oligodendrocyte number relative to DMSO vehicle control” has its median near -0.34; the highest 2% begin near 13. The list shows a part of the results.

What follows are compounds tested on jimpy (Plp1 jimpy) mouse iPSC-derived oligodendrocyte progenitor cells (assay: MBP+ mature oligodendrocyte number relative to DMSO vehicle control (SDs above negative control mean); higher = more surviving jimpy oligodendrocytes (rescue)). Conditions: 10 µM; 3 days.
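Note: 10 µM single dose with 3-day oligodendrocyte differentiation.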

First: CC(CCc1ccccc1)NCC(O)c1ccc(O)c(C(N)=O)c1 (stereo not drawn) [Labetalol hydrochloride]
Second: CCOC(=O)[C@H](CCc1ccccc1)N[C@@H](C)C(=O)N1Cc2ccccc2C[C@H]1C(=O)O [Quinapril HCl]
The “MBP+ mature oligodendrocyte number” value of the first is lower: less than -3.97 for the first, -1.28 for the second.

Going from `O=c1cc(-c2cccc3c2Sc2ccccc2S3)oc(N2CCOCC2)c1` to `OCCOCCN1CCN(C2=Nc3ccccc3Sc3ccccc32)CC1` [Quetiapine Fumarate], the “MBP+ mature oligodendrocyte number” value rises from -3.99 to -2.54.

First: Fc1ccc(C(c2ccc(F)cc2)N2CCN(C/C=C/c3ccccc3)CC2)cc1 [Flunarizine 2HCl]
Second: CCC(=O)N1CCN(c2ccc(-n3c(=O)ccc4cnc5ccc(-c6cnc7ccccc7c6)cc5c43)cc2C(F)(F)F)CC1 [Torin 1]
The “MBP+ mature oligodendrocyte number” value of the first is higher: -4.07 for the first, less than -6.01 for the second.

Going from `Fc1ccc(C(c2ccc(F)cc2)N2CCN(C/C=C/c3ccccc3)CC2)cc1` [Flunarizine dihydrochloride] to `O=[N+]([O-])c1ccc(-c2nc(-c3ccc(F)cc3)c(-c3ccncc3)[nH]2)cc1`, the “MBP+ mature oligodendrocyte number” value rises from less than -4.47 to -3.21.

First: Oc1ccc([C@H]2COc3cc(O)ccc3C2)cc1 [Equol]
Second: N#Cc1c(O)c2c(-c3ccc(-c4ccccc4O)cc3)csc2[nH]c1=O
The “MBP+ mature oligodendrocyte number” value of the first is higher: 3.75 for the first, 2.8 for the second.

Compared with `Cc1ccc(Nc2c(F)cccc2Cl)c(CC(=O)O)c1` [Lumiracoxib], `O=C(Nc1ccccc1)c1cc([N+](=O)[O-])ccc1Cl` is lower in “MBP+ mature oligodendrocyte number” value: 0.263 for the first, -1.64 ± 1.1 for the second.

First: CCCCC(=O)O[C@H]1CC[C@H]2[C@@H]3CCc4cc(O)ccc4[C@H]3CC[C@]12C [Estradiol valerate]
Second: C[C@]12CC[C@@H]3c4ccc(O)cc4CC[C@H]3[C@@H]1CC[C@@H]2O [beta-Estradiol]
The “MBP+ mature oligodendrocyte number” value of the first is higher: 5.03 for the first, 3.17 for the second.

Going from `N=C(N)c1ccc(OCCCCCOc2ccc(C(=N)N)cc2)cc1` [Pentamidine] to `CNCCCC1c2ccccc2C=Cc2ccccc21` [Protriptyline hydrochloride], the “MBP+ mature oligodendrocyte number” value rises from -5.93 to -3.67.

First: N=C(N)c1ccc(OCCCCCOc2ccc(C(=N)N)cc2)cc1 [Pentamidine isethionate]
Second: CN(C)CCOC(c1ccccc1)c1ccccc1 [Diphenhydramine hydrochloride]
The “MBP+ mature oligodendrocyte number” value of the first is lower: less than -3.97 for the first, -1.59 for the second.

First: Cc1[nH]c2ccccc2c1CCNC(=O)c1cccs1
Second: O=c1[nH]c(=S)[nH]c(-c2ccccc2)c1Cc1c(O)ccc2ccccc12 [Cambinol]
The “MBP+ mature oligodendrocyte number” value of the first is lower: -0.745 for the first, 0.555 for the second.

Going from `COc1cccc2c1C(=O)c1c(O)c3c(c(O)c1C2=O)C[C@@](O)(C(=O)CO)C[C@@H]3O[C@H]1C[C@H](N)[C@H](O)[C@H](C)O1` [Doxorubicin (Adriamycin)] to `O=C(CCc1ccc(O)cc1)c1c(O)cc(O)cc1O[C@@H]1O[C@H](CO)[C@@H](O)[C@H](O)[C@H]1O` [Phlorizin], the “MBP+ mature oligodendrocyte number” value rises from -5.74 to -0.668.

Going from `Cn1cnc2c(NCc3ccccc3)nc(NCCO)nc21` [Olomoucine] to `CCOC(=O)CCNc1cc(N2CCc3ccccc3CC2)nc(-c2ccccn2)n1`, the “MBP+ mature oligodendrocyte number” value falls from 1.83 to less than -6.35.

Going from `Cc1cc(C(=O)NOCCO)c(Nc2ccc(I)cc2F)n(C)c1=O` to `CCNC(=O)c1[nH]nc(-c2cc(Cl)c(O)cc2O)c1-c1ccc(OC)cc1`, the “MBP+ mature oligodendrocyte number” value falls from -0.892 to -4.64.

Compared with `CC1(C)S[C@@H]2[C@H](NC(=O)[C@H](N)c3ccc(O)cc3)C(=O)N2[C@H]1C(=O)O` [Amoxicillin Sodium], `CC(C)c1ccc(NC(=O)Cn2cnc3c2c(=O)n(C)c(=O)n3C)cc1` is higher in “MBP+ mature oligodendrocyte number” value: 0.283 for the first, 4.15 for the second.

Compared with `CC1(C)S[C@@H]2[C@H](NC(=O)[C@H](N)c3ccc(O)cc3)C(=O)N2[C@H]1C(=O)O` [Amoxicillin], `CCCN(CCC)S(=O)(=O)c1ccc(C(=O)O)cc1` [Probenecid] is higher in “MBP+ mature oligodendrocyte number” value: 0.819 for the first, 3.7 for the second.

Going from `COc1cccc2c1[C@@H]1CN(CCCCn3c(=O)[nH]c4c(sc5ncc(-c6ccccc6)nc54)c3=O)C[C@@H]1CO2` [Fiduxosin hydrochloride] to `Cc1onc(-c2ccccc2)c1-c1ccc(S(N)(=O)=O)cc1` [Valdecoxib], the “MBP+ mature oligodendrocyte number” value rises from -4.31 to 6.74.

Going from `CN[C@@H]1[C@H](O[C@H]2[C@H](O[C@H]3[C@H](O)[C@@H](O)[C@H](N=C(N)N)[C@@H](O)[C@@H]3N=C(N)N)O[C@@H](C)[C@]2(O)C=O)O[C@@H](CO)[C@H](O)[C@H]1O` [Streptomycin sulfate] to `CN(N=O)C(=O)NC1C(O)OC(CO)C(O)C1O` (stereo not drawn) [Streptozotocin (STZ)], the “MBP+ mature oligodendrocyte number” value rises from -0.724 to 0.109.

Going from `O=C(C=Cc1ccccc1)NC(NC(=S)Nc1ccc(Cl)cc1)C(Cl)(Cl)Cl` (stereo not drawn) to `C[C@H](NC(=O)/C(C#N)=C/c1cccc(Br)n1)c1ccccc1`, the “MBP+ mature oligodendrocyte number” value falls from -0.386 to less than -6.01.

Going from `Nc1nc(Cl)nc2c1ncn2[C@H]1C[C@H](O)[C@@H](CO)O1` [Cladribine] to `Oc1ncnc2[nH]ncc12` [Allopurinol], the “MBP+ mature oligodendrocyte number” value rises from less than -6.7 to 2.67 ± 4.6.

Going from `CCOC(=O)C1=C[C@@H](OC(CC)CC)[C@H](NC(C)=O)[C@@H](N)C1` [Oseltamivir phosphate] to `CO/N=C(\C(=O)N[C@@H]1C(=O)N2C(C(=O)OCOC(=O)C(C)(C)C)=C(/C=C\c3scnc3C)CS[C@H]12)c1csc(N)n1` [Cefditoren Pivoxil], the “MBP+ mature oligodendrocyte number” value rises from -0.724 to 3.67.

`C[C@]12CCC(=O)C=C1CC[C@@H]1[C@@H]2[C@@H](O)C[C@@]2(C)[C@H]1CC[C@]2(O)C(=O)CO` [Hydrocortisone] and `C=C[C@]1(C)C[C@@H](OC(=O)CS[C@@H]2C[C@H]3CC[C@@H](C2)N3C)[C@]2(C)[C@H](C)CC[C@]3(CCC(=O)[C@H]32)[C@@H](C)[C@@H]1O` [Retapamulin] are within error of each other in “MBP+ mature oligodendrocyte number” value: 5.93 ± 0.88 for the first, 5.81 for the second.

Going from `S=C(S)OC1CC2CC1C1CCCC21` [D-609 potassium] to `C[C@]12CC[C@@H]3c4ccc(O)cc4CC[C@H]3[C@@H]1CC[C@@H]2O` [Estradiol], the “MBP+ mature oligodendrocyte number” value rises from -1.14 to 5.47.

First: CCCc1cc(=O)[nH]c(=S)[nH]1 [Propylthiouracil]
Second: C=C1C(=O)O[C@@H]2/C=C(\C)CC/C=C(\C)CC[C@@H]12 [Costunolide]
The “MBP+ mature oligodendrocyte number” value of the first is higher: 0.523 for the first, less than -6.7 for the second.

Going from `CCNC(=O)Nc1ccc(-c2nc3c(c(N4CCOC[C@@H]4C)n2)CCN(C2COC2)C3)cc1` to `CN(C)CCOC(c1ccccc1)c1ccccc1` [Diphenhydramine HCl], the “MBP+ mature oligodendrocyte number” value rises from -4.52 to -1.37.
